# Laboratory results from the RNAGym collection of RNA variant scans (doi:10.7554/elife.90254).
# Read counts are not given, so values of variants with three or more changes are uncertain.
# B1: LINE1-mini (parent)
# chain: GGCAGAGCUCAACACAGCGUGGCAAAGUGGCUGUGGCUAGACUGCC
# Variants of: B1
# Assay: self-cleavage, relative activity (ratio to wild type); higher = more cleavage; in vitro, sequencing; the parent is a self-cleaving ribozyme
row,Variant,self-cleavage
1,GGCAGAGCUGCACACAGCGUGGCAGAGUGGCUGUGGCUAGACUGCC [C10G A11C A25G],0.01
2,GGCAGAGCUGCAAACAGCGUGGCAAAGUGGCUGUGGCUAGAUUGCC [C10G A11C C13A C42U],0.01
3,GGCAGAGCUAAACACAGCGUGGCAAAGUGGCUGUGGCUAGACCCCC [C10A U43C G44C],0.01
4,GGCAGAGCUGUACACAGCGUGGCAAAGUGGCCAUCGGUAGACUGCC [C10G A11U U32C G33A G35C C37G],0
5,GGCAGAGCUAAACACAGCGUGGCAAAGUGGCUGCGGCUAGUCUGCC [C10A U34C A41U],0.05
6,GGCAGAGCUGGACACAGCGUGGCAAAGUGACUGUGGCUAGACUGCC [C10G A11G G30A],0
7,GGCAGAGCUAAACACAGCGUGGCAAAGUGGCGGAGGCUAGACUGCC [C10A U32G U34A],0.01
8,GGCAGAGCUAAACACAGCGUGGCAAAGUGGCUGAGGCUAGCCAGCC [C10A U34A A41C U43A],0.02
9,GGCAGAGCUGACUACAGCGUCGCAAAGUGGCUAUGACUAGACUGCC [C10G A12C C13U G21C G33A G36A],0
10,GGCAGAGCUAAACACAGCGUGGCAAAGAGGAUGUGGCUAGACUGCC [C10A U28A C31A],0.05
11,GGCAGAGCUGCAAACAGCGUGGCAAAGUGGCUGUGGCCAGACUGCC [C10G A11C C13A U38C],0.04
12,GGCAGAGCUGCACGCAGCGUGUCAAAGUGGUUGUGGCUCGACUGCC [C10G A11C A14G G22U C31U A39C],0
13,GGCAGAGCUGCACACAGCGUGGAAAAGUGGCUGUGGCUAGACUGCC [C10G A11C C23A],0.01
14,GGCAGAGCUAAACACAGCGUGGCAAAGUGGCUGCGGCUAGACUUCC [C10A U34C G44U],0.03
15,GGCAGAGCUAAACACAGCGUGGCAAAGCGCCUGUGGCUAGACUUGC [C10A U28C G30C G44U C45G],0
16,GGCAGAGCUGACUACAGCGUGGCAAAGUGGCUGUGGCUAGACUGCC [C10G A12C C13U],0.02
17,GGCAGAGCUAAACACAGCGCGGCAAAGUGGCUGUUCCUAGACUGCC [C10A U20C G35U G36C],0.15
18,GGCAGAGCUAAACACAGCGCGGCAAACUGUCUGUGGCUAGACUGCC [C10A U20C G27C G30U],0.03
19,GGCAGAGCUGUACACAUCGUUGCAAAGUGGCUGUUACUAGACUGCC [C10G A11U G17U G21U G35U G36A],0.02

row,Variant,self-cleavage
1,GGCAGAGCUAAACACAGCGUGGCAAAGUGGCGGUGGCUUGAUUGCC [C10A U32G A39U C42U],0.02
2,GGCAGAGCUGUACACAGCGUGGCAUAGUGGCUGUGGCUAGACUGCC [C10G A11U A25U],0.01
3,GGCAGAGCUGGACACAGCGUGGCAAAGUGGCUGUGGCUAGAGUGCC [C10G A11G C42G],0
4,GGCAGAGCUAAACACAGCGUGGCAAAGUGGCCGUGGCUAGACUACC [C10A U32C G44A],0.04
5,GGCAGAGCUGUACACGGGGUGGCAAAGUGGCUGUGGCUAGACUGCC [C10G A11U A16G C18G],0.02
6,GGCAGAGCUAAACACAGCGGGGCAAUGUGGCUGUGGCUAGACUGCC [C10A U20G A26U],0.03
7,GGCAGAGCUAAACACAGCGUGGCAAAGGGGAUGUAGUUAGACCGCC [C10A U28G C31A G35A C37U U43C],0
8,GGCAGAGCUAAACACAGCGGGGCAAAGUGGCUGUGGCUAGACUGCG [C10A U20G C46G],0.01
9,GGCAGAGCUGCACACAGCGUGGCAAAGUGACUGUGGCUUGACUGCC [C10G A11C G30A A39U],0.02
10,GGCAGAGCUAAACACAGCGUGGCAAAGUGGCCGAGGCUAGACUGCA [C10A U32C U34A C46A],0.02
11,GGCAGAGCUAAACACAGCGUGGCAAAGUGGCUGUGGCCAGACUGCG [C10A U38C C46G],0.15
12,GGCAGAGCUGGACACAGCGUGCCAAAGUGGCAGUGUCUAGUCUGCC [C10G A11G G22C U32A G36U A41U],0
13,GGCAGAGCUGUACACAGCGUGGCAAAGUGGCCGUGGCUAGACUGCC [C10G A11U U32C],0.04
14,GGCAGAGCUGUACACAGCGUGGCAAAGUGGCUGUGGUUAGACUGCC [C10G A11U C37U],0.01
15,GGCAGAGCUGCACACAGCGUGGCAAAGUGGCUGUGGCUAGAAUGCC [C10G A11C C42A],0.02
16,GGCAGAGCUGCACACAGGGUGGCAAAGUGGCUGUGGCUAUACUGCC [C10G A11C C18G G40U],0
17,GGCAGAGCUGUACAGAGCGUGGCAAAGUGGCUGCGGCUAGACUGCC [C10G A11U C15G U34C],0.01
18,GGCAGAGCUGGACACAGCGUGGCAAAGUGGUUGUGGCUAGACUGCC [C10G A11G C31U],0.01
19,GGCAGAGCUAAACACAGCGGGGCAAAGUGGCUGUGGCUAGACUUCC [C10A U20G G44U],0.03

row,Variant,self-cleavage
1,GGCAGAGCUAAACACAGCGUGGCAAAGAGGCUGUGGCUGGACUGCC [C10A U28A A39G],0.01
2,GGCAGAGCUAAACACAGCGUGGCAAAGUGGCUGUGGCAAGAAUGCC [C10A U38A C42A],0.1
3,GGCAGAGCUAAACACAGCGCGGCAAAGUGGCUGCGGCUAGACUGCC [C10A U20C U34C],0.02
4,GGCAGAGCUAAACACAGCGUGGCAAAGGGGCUAUGGCUAGACUGCC [C10A U28G G33A],0
5,GGCAGAGCUGCACACAGCGUGGCAAAGAGGCUGUGGCUAGACUGGC [C10G A11C U28A C45G],0.01
6,GGCAGAGCUGUACUCAGCGUGGUAAAGUGGCUGUGGCUAGACUGCC [C10G A11U A14U C23U],0.02
7,GGCAGAGCUAAACACAGCGUGGCAAAGCGGCUGUGGCUAGAAUGCC [C10A U28C C42A],0.04
8,GGCAGAGCUAAACACAGCGUGGCAAAGUGGCUGCGGCUAGAGUGCC [C10A U34C C42G],0.05
9,GGCAGAGCUAAACACAGCGUGGCAAAGUGGCUGUGGCGGGACUGCC [C10A U38G A39G],0.01
10,GGCAGAGCUAAACACAGCGUGGCAAAGUGGCCUUGGCUAGACUGUC [C10A U32C G33U C45U],0.01
11,GGCAGAGCUAAACACAGCGUGGCAAAGGGUAUGUUACUACACUGAC [C10A U28G G30U C31A G35U G36A G40C C45A],0.01
12,GGCAGAGCUAAACACAGCGCGGCAAAGCGGCUGUGGCUAGACUUCC [C10A U20C U28C G44U],0.03
13,GGCAGAGCUGACCACAGCGUGGCAAAGUGGCUGUGGCUAGACUGGC [C10G A12C C45G],0.02
14,GGCAGAGCUGGACACAGCGUGGCAAAGGGGCUGUAGCUAGGCUGCC [C10G A11G U28G G35A A41G],0.01
15,GGCAGAGCUGUACACAGAGUGGCAAAGUGGCUGAGGCUAGACUCCC [C10G A11U C18A U34A G44C],0.02
16,GGCAGAGCUAAACACAGCGCGGCAAAGUGGCUGUGUCUAGACUGCC [C10A U20C G36U],0.02
17,GGCAGAGCUAAACACAGCGUGGCAAAGCGGCUUUGGCUAAACUGCC [C10A U28C G33U G40A],0
18,GGCAGAGCUGUCCACAGCGUGGCAAAGUGGCUGUGGCUAGACUGCC [C10G A11U A12C],0.04
